About 5,700 (2.6%) of roughly 220,000 compounds were called active. The shares of active, inactive and inconclusive entries below differ from those in the screen. Calls follow the shape of the dose curve; as a rule, active = well fitted inhibition curve with a large enough effect; inconclusive = small, poorly fitted or top-dose-only effect; inactive = no such curve, though single readings can be large or run the other way. Potencies beside an inconclusive call are fits to weak or partial responses and may not hold up.
target: Lysine-specific demethylase 5B (Homo sapiens) (UniProt Q9UGL1); assay: Primary screen for KDM5B Histone Demethylases FDH-coupled qHTS; conditions: FDH-coupled NADH fluorescence (FDH is formaldehyde dehydrogenase); activity change, negative = inhibition: at 57.7 µM (top of the series) unless noted; also: nearly all actives have a fitted effect of over 70% in size; as to activity change, negative = inhibition: 0% is about no effect
Summary of the method: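 Inhibition is measured as reduced NADH fluorescence generation from FDH coupling to formaldehyde release. Truncated KDM5BΔAP at 200 nM final acts on H3K4me3 peptide (12.5 µM in substrate mix) in pH 7.5 HEPES buffer with Tween-20, 30 min, room temperature.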
Potency is read from the fitted curve at half-maximal effect; tags tell the direction and shape of the fitted curve.

Chain of UniProt Q9UGL1 (Q9UGL1 whole entry, looked up, the tested form may be a part): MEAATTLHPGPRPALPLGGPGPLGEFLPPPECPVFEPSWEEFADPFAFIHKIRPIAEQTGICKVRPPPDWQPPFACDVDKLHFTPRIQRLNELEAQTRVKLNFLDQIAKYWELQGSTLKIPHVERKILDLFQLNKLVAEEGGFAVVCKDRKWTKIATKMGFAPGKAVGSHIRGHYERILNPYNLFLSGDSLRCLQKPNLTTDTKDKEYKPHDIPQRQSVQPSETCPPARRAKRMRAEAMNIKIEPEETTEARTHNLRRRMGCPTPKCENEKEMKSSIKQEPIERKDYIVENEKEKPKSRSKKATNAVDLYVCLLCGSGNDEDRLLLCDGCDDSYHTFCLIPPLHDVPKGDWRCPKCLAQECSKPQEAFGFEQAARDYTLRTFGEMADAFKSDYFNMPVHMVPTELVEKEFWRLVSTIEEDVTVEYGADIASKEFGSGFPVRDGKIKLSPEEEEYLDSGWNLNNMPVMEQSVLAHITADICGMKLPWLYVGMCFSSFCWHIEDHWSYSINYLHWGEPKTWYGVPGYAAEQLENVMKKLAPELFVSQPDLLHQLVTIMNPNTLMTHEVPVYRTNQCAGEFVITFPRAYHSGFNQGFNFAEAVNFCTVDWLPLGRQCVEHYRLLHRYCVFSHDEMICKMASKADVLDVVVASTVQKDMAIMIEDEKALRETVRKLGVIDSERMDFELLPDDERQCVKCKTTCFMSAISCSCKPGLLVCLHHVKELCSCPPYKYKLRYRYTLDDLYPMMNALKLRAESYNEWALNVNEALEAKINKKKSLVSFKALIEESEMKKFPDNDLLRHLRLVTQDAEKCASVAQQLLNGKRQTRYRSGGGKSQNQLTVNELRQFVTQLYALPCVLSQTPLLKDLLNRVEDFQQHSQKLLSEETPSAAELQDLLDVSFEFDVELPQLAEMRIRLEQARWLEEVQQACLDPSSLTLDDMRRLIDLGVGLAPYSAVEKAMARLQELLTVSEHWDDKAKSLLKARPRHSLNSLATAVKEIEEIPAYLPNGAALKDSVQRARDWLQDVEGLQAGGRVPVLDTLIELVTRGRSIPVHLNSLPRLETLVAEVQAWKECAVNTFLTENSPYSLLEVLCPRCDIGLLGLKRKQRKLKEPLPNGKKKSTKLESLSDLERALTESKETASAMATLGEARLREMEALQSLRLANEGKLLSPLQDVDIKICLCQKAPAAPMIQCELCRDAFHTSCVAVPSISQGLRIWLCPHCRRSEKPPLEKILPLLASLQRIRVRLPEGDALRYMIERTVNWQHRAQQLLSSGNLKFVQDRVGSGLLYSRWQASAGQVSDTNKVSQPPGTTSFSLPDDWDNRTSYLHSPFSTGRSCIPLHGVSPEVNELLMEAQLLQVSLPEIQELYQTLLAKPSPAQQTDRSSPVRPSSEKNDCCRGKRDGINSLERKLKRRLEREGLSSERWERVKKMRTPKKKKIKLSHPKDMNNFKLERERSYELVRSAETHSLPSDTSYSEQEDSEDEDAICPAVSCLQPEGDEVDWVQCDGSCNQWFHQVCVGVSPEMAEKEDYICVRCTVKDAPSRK

| SMILES | Potency | activity change, negative = inhibition |
| --- | --- | --- |
| COc1ccc(Cn2cccc(NC(=O)Nc3cccc(OC)c3)c2=O)cc1 | inconclusive: 39.8 µM [inhibitor, partial curve, poor fit] | – |
| CC(C)(Oc1nn(Cc2cccc(Cl)c2)c2ccccc12)C(=O)NC1CC1 | inconclusive: 31.6 µM [inhibitor, single point] | – |
| O=C(CCNC(=O)c1cnccn1)NC1CCCc2c1[nH]c1ccccc21 (stereo unspecified) | inconclusive: 15.8 µM [inhibitor, partial curve, poor fit] | – |
| O=C(Nc1ccccc1)N(Cc1ccc(F)cc1)c1ccccn1 | inconclusive: 35.5 µM [inhibitor, single point] | – |
| Cc1cc(O)c(C(c2ccccc2)N2CCN(C)CC2)c(=O)n1Cc1ccco1 (stereo unspecified) | inconclusive: 22.4 µM [inhibitor, partial curve, poor fit] | – |
| Cc1cccc(-c2nc(C#N)c(NCCCN(C)C)o2)c1 | inconclusive: 22.4 µM [inhibitor, partial curve, poor fit] | – |
| CN(C)c1nccnc1OC1CCN(C(=O)CC2CCCC2)C1 (stereo unspecified) | inconclusive: 20 µM [inhibitor, partial curve, poor fit] | – |
| O=C(NC1CCN(c2ncccn2)CC1)c1c(F)cccc1F | inconclusive: 35.5 µM [inhibitor, single point] | – |
| COc1ccc(C(=O)N2C[C@@H](F)[C@@H](OCc3nc4ccccc4o3)C2)cc1 | inactive | – |
| COc1ccccc1CN1CCNc2cnc(Oc3ccccc3)cc2C1 | inconclusive: 39.8 µM [inhibitor, partial curve, poor fit] | – |
| Cc1ccc(-c2ccccc2)n1-c1cccnc1 | inconclusive: 17.8 µM [inhibitor, partial curve, poor fit] | – |
| O=C1CC(c2ccccc2)N(C(=O)C2CC2)CCCN(C(=O)c2ccco2)CCN1 (stereo unspecified) | inactive | – |
| Cc1nc2ncccn2c1C(=O)N[C@@H]1CCOC[C@H]1Oc1ccccn1 | active: 31.6 µM | – |
| COc1ccc(C(C)n2c(C)c3c(C)nnc(C)c3c2C)cc1 (stereo unspecified) | inconclusive: 25.1 µM [inhibitor, partial curve, poor fit] | – |
| N#Cc1nc(-c2ccccc2)oc1NCc1ccccc1 | inconclusive: 22.4 µM [inhibitor, partial curve, poor fit] | – |
| COc1cc(CN2CCC3(CC2)CN(c2ccncn2)CC3CO)ccc1F (stereo unspecified) | inactive | – |
| COCC1CN(Cc2cn(C)c3ccc(OC)cc23)CC12CCNCC2 (stereo unspecified) | inconclusive: 12.6 µM [inhibitor, partial curve] | – |
| CC(C)c1ccc(C(C)NC(=O)Cc2cccs2)cc1 (stereo unspecified) | inactive | – |
| Cc1cccc(C)c1Nc1nc2ccccc2nc1NS(=O)(=O)c1ccccc1 | inconclusive: 1.58 µM [inhibitor, partial curve, poor fit] | – |
| Cc1ccc2nc(Nc3ccc(Cl)cc3)c3nncn3c2c1 | inconclusive: 31.6 µM [inhibitor, single point] | – |
| Cc1cn2nc(C(=O)N3CCC(NC(=O)c4cccc(F)c4)CC3)cc2c(=O)[nH]1 | inconclusive: 35.5 µM [inhibitor, partial curve, poor fit] | – |
| CCc1ccc(NCc2cc3cc(OC)c(OC)cc3n(CC(=O)Nc3cc(C)ccc3C)c2=O)cc1 | inconclusive: 2.51 µM [inhibitor, full curve, poor fit] | – |

| SMILES | Potency | activity change, negative = inhibition |
| --- | --- | --- |
| CCCc1ccc(-c2cc(C(=O)Nc3nncs3)c3ccccc3n2)cc1 | inconclusive: 28.2 µM [inhibitor, partial curve, poor fit] | – |
| Nc1ncc(-c2ccccc2)c(-c2ccc(OCc3ccccc3F)cc2O)n1 | inactive | – |
| CSc1nc(=O)c2c(n1C)NC(=O)CC2c1ccc2c(c1)OCO2 (stereo unspecified) | inactive | – |
| COCCNC(=O)c1nc2sccn2c1Br | inactive | – |
| Nc1c(C(=O)Nc2ccccc2)c2nc3ccccc3nc2n1CCCN1CCOCC1 | inconclusive: 22.4 µM [inhibitor, partial curve, poor fit] | – |
| O=S(=O)(c1ccc2c(c1)CCN2)N1CCCCCC1 | inconclusive: 39.8 µM [inhibitor, single point] | – |
| COc1ccc(OC)c(-c2cc3ccc(OC)cc3oc2=O)c1 | inconclusive: 28.2 µM [inhibitor, partial curve, poor fit] | – |
| Oc1ccc(O)c([S+]2CCCCC2)c1 | inconclusive: 35.5 µM [inhibitor, single point] | – |
| CCOC(=O)C(Cc1c[nH]c2ccccc12)NC(=O)COc1ccc(Cl)c(C)c1 (stereo unspecified) | inconclusive: 25.1 µM [inhibitor, partial curve, poor fit] | – |
| COc1ccc(-c2c(NC(=O)c3cccs3)n(C)c3ccccc3c2=O)cc1OC | inactive | – |
| O=C(c1cccc2c1CCN2C(=O)Nc1ccccc1)N1CCN(c2ccccc2)CC1 | inactive | – |
| CCOc1nc(NC(=O)NS(=O)(=O)Oc2ccccc2)nc(-c2ccccc2)n1 | inconclusive: 35.5 µM [inhibitor, single point] | – |
| O=S(=O)(c1ccccc1F)N1CCN(c2nc(-c3cccs3)nc3ccccc23)CC1 | inactive | – |
| O=C(NC1(c2ccccc2)CCC1)c1cccc(C(F)(F)F)c1 | inactive | – |
| CCOc1ccc(Nc2nc(N3CCOCC3)c3cnn(C)c3n2)cc1 | inconclusive: 35.5 µM [inhibitor, partial curve, poor fit] | – |
| Cc1nc2nc(NCc3ccccc3)[nH]n2c(=O)c1CCO | inconclusive: 25.1 µM [inhibitor, partial curve, poor fit] | – |
| COc1ccc(C(=O)N2CCN3C(=O)c4cc(-c5ccc(Cl)cc5)ccc4NC(=O)[C@@H]3C2)cc1 | inconclusive: 31.6 µM [inhibitor, single point] | – |
| CCOc1ccc(Sc2cc(C(=O)NCCc3ccccc3)c3ccccc3n2)cc1 | inconclusive: 39.8 µM [inhibitor, single point] | – |
| CCc1ccc(Sc2cc(C(=O)NC(C)CC)c3ccccc3n2)cc1 (stereo unspecified) | inconclusive: 35.5 µM [inhibitor, single point] | – |
| CCCNc1nc(Nc2ccc(C)c(Cl)c2)c2cnn(C)c2n1 | inconclusive: 31.6 µM [inhibitor, partial curve, poor fit] | – |
| CCc1[nH]c2ccc(CNC(=O)[C@H]3[C@@H]4C=C[C@@]5(CN(C)C(=O)[C@@H]35)O4)cc2c1C | inconclusive: 25.1 µM [inhibitor, partial curve, poor fit] | – |
| CCOc1ccc(OCC(=O)Nc2nnc3n2CCS3)cc1 | inconclusive: 15.8 µM [inhibitor, partial curve, poor fit] | – |

| SMILES | Potency | activity change, negative = inhibition |
| --- | --- | --- |
| Cc1ccc(Cl)c(OCC(=O)c2ccc3c(c2)N(CCCC(=O)NC2CC2)C(=O)CO3)c1 | inconclusive: 35.5 µM [inhibitor, partial curve, poor fit] | – |
| CC(=O)NC1CCCc2c1[nH]c1ccc(F)cc21 (stereo unspecified) | inconclusive: 28.2 µM [inhibitor, single point] | – |
| CCOC(=O)c1sc2ncn(CC(=O)Nc3ccc(C)cc3Br)c(=O)c2c1C | inactive | – |
| CC(C)CCN1CC2(CCCN(C(=O)c3ccn(C)c(=O)c3)C2)CCC1=O (stereo unspecified) | inconclusive: 28.2 µM [inhibitor, partial curve, poor fit] | – |
| N#Cc1c[nH]n2c(NC3CCCC3)c(-c3cccc(Cl)c3)nc12 | inconclusive: 17.8 µM [inhibitor, partial curve, poor fit] | – |
| CCOc1cc(C(=O)N2CCc3c([nH]c4ccccc34)C2c2ccccc2)cc(OCC)c1OCC (stereo unspecified) | – | inconclusive: -34.2% [inhibitor] |
| COc1ccc(C)cc1NC(=O)Cn1c(=O)ccc2cc(S(=O)(=O)N3CCCC3)ccc21 | – | inconclusive: -38.2% [inhibitor] |
| N#Cc1cccc(CN2CCOCCNC(=O)CC2)c1 | inconclusive: 39.8 µM [inhibitor, single point] | – |
| COc1cc(CNC(=O)CCc2ccncc2)ccc1OC1CCCC1 | inactive | – |
| COc1ccc(CNC(=O)CC(c2ccc(OC)c(OC)c2)N2Cc3ccccc3C2=O)cc1 (stereo unspecified) | inconclusive: 1.41 µM [inhibitor, partial curve, poor fit] | – |
| CCOc1ccc(NC(=O)CSC2=Nc3ccccc3C3=NC(CC(=O)NCc4ccco4)C(=O)N23)cc1 (stereo unspecified) | inconclusive: 44.7 µM [inhibitor, single point] | – |
| FC(F)(F)c1ccccc1N/N=C/c1ccccc1Br | inconclusive: 25.1 µM [inhibitor, single point] | – |
| CC(/C=N/NC(=O)c1nnn(-c2nonc2N)c1C)=C\c1ccccc1 | inconclusive: 39.8 µM [inhibitor, partial curve, poor fit] | – |
| COc1ccc(OCC(=O)Nc2ccc3oc(-c4ccccc4F)nc3c2)cc1 | inconclusive: 2 µM [inhibitor, full curve, poor fit] | – |
| Cc1ccc(-c2nccc3c(=O)cc(N4CCN(C)CC4)oc23)cc1 | active: 39.8 µM | – |
| Cc1cc(C)c(NC(=O)CCc2ncc(-c3ccc(Cl)cc3)o2)c(C)c1 | inactive | – |
| CCC(C)Nc1nc(-c2ccccn2)nc2ccccc12 (stereo unspecified) | inactive | – |
| Cn1c(=O)c2c(ncn2CCC(=O)Nc2ccc(Cl)cc2F)n(C)c1=O | inactive | – |
| Cc1nc2cc(C(=O)Nc3ccccc3N3CCCC3=O)ccc2n1-c1ccccc1 | inactive | – |
| O=C(CCl)N1CC=C(c2ccccc2)CC1 | inconclusive: 28.2 µM [inhibitor, partial curve, poor fit] | – |
| COc1cccc(-c2nc(-c3c(C)noc3C)cc3c2cc(C)n3CCN(C)C)c1OC | active: 39.8 µM | – |
| COc1ccccc1NC(=O)c1cc2c(n1C)CCN(Cc1cccc(C)c1)C2 | inconclusive: 20 µM [inhibitor, partial curve, poor fit] | – |

— PubChem BioAssay AID1347165 (National Center for Advancing Translational Sciences (NCATS), 2019)
